Measured values from the supplement of paper PMC12632987.
Whole data set: some 2,300 sequences, median “median log2 fold change of GCK-ALFA target abundance (FLAG IP / Myc IP barcode read proportion)” near 0.095, cut for the lowest 2% near -0.47. The list shows a part of the results.

B1: LC3A_3_1877 (protein)
chain: MEERVEETVKELKEAGKSEETIEKFLEAVELLKERGWEKAAETLIEEVRKLISAPNEIVLDFLEEVLETIEEEDLSEEELIERIKELARLALNESEIIEL
B2: LC3A_28_857 (protein)
chain: SETERSIEEARKRLEEAVANKEPVLITIRVTEDVTEEEVDRVIETIELAAEASKEVPELHVLVDFDGDIDPEHQKRIVDAGEEATKRNPNLTVIFALDEE
B3: LC3A_28_973 (protein)
chain: SELEKELEKALKEAKEAAEKKEPKVITIKVKGTTNEEDTEKIIEKLEEIAEILKDVKGSAIIIDVERGVKQEHIDKLADKAEEIEEKYPNITVIIALEEE
B4: LC3A_132_290 (protein)
chain: QQEKYEKLTKEANALVEEAKANIDDEAKVLALLEKIKALMEEAVKELSPELLAKFFEELADKLEALAKEFDAAGKEDLALLADSLAIEAASLALRAKEQI
B5: LC3A_3_1611 (protein)
chain: MEELIERELERLREAGFSPEVLEEARKVLEALAEKGYRRAIEKLTEELLKLKDVDPELVIEALREILRIVTEEDLSEEEVIEEIEREFRVVRLESEIIEL
B6: LC3A_free_46_2379 (protein)
chain: YKIEIDIYFSAMDKETAEKIAEEIKKAAEEISKKTGVKIEVKVEIITDEEGETWLEVEVTIEHEDEEKALEAATELIDEFEKIAKEAGVSLIISVEKIKE
B7: LC3A_3_1690 (protein)
chain: MDELVKEVLEELKKIGADPETLKAAEKLLKKLKEKGYENAIKTLLEELKKLKNADSEILKAMFEDILYEVENKNLSEEEIVELIKEEARIAKNEQEIIEL
B8: LC3A_141_357 (protein)
chain: ATQTRTLTLTATTYDEGEEVADQIGAAIRAFMEATGADTVTLTLTITAYNAETGETTTETETLTVTWENLDMVEEGILISILSQFEKGATKVTVTATITT
B9: LC3A_28_927 (protein)
chain: MTAEEVIEEIREKAREALESGKPAHLEVKIDSSTTVEEAERIMEEVEREVKRLAEAGIEVDITVDLDNVSQEVLDLVAERLDEIIEKYPLASAIIALDEE
B10: LC3A_3_1520 (protein)
chain: MEEIEKEIIKLLKEAGASEETIEKAKELLKLLRERGYLNAMKTLLEELKELKDAPVETIEAFVKDVLELVKTEDLSEEELSKRIKELATIAKNDAEIEEL
B11: LC3A_45_1955 (protein)
chain: MYEATVYVLVPAEHFDAAVAVLREKAAELEREKGVEVRIDPEALAAARAEAAANGEALLEVRIIAEDKETALDAADEIEDAVQAAMPPSVAVAISVEEVP
B12: LC3A_free_46_2306 (protein)
chain: WKAEIDIDLLHEDEEVLKKAVEEIIAAAKEIAEKYGLELEIEVEFEKLEDGSYYAHIKITLKGEKEEDLKKAVNELIDKIDEIAEKYDVSAVISVEIIKE
B13: LC3A_141_376 (protein)
chain: KEVEFELEAKGETPEEVVEKMDELEEKVLKAYEELGGGKVKVKVTLTLTNRETGEVKVVEEEFVGDKETIEMLLDGFLIEAASAVMRAPTDVKLKVVLEK
B14: LC3A_free_8_2486 (protein)
chain: KVEEAKKKISEIIDKAEEEIKKKAKELNADPLDVNELLILLGQAEIYALDYVDKNDEELLKELEDAFKEAIELAKKISEEIAKIVEEAKKKVLEILESLK
B15: LC3A_147_474 (protein)
chain: VRAEVSIDILTKNAEEEVKEKIKEIVEELKEEGYEVELEIKTEKLPDGTTYIEVTITIKAETKEKAEEAANKVIDKLDEIEEELKDKILGSIISVEIIEE
B16: LC3A_28_796 (protein)
chain: SAVDAELARARAEAEAALARGEEALLTVRVGGDTTEEDARRIVEGLEEIVERAASLPRLSILIDLDGDVSQEVIDILAEGGERLEERYPNVNVILALDEE
B17: LC3A_free_46_2367 (protein)
chain: PRAEIDIDFLVETKELAEELAKELEAAIRAIAEKHGVRVEIEVEIIENPDGTYSLRIRIRLEAEDKETLLAAVTAIIDEIDKIAEKFNVSYIISVEVIDE
B18: LC3A_28_700 (protein)
chain: SELEENLKKAEKEAEEAVEKGEDAYIEVKLSGTATKEDIEKVLKRIEEIAEKVTKVGKLYVVVDVDGKLPQENLTLLADGLDEIEEKYPKVSAVIALDED
B19: LC3A_147_441 (protein)
chain: VTITIDILVKTEEAKEKVIEKIKEIVEELKKKGFKVELKIEVEKIDENTYYIKVTIKVEAETEEKAEEAKNLVLDKIDEMEEELKDYILGSIISVEIEKK

biological target: MAP1LC3A, Q9H492; experiment: median log2 fold change of GCK-ALFA target abundance (FLAG IP / Myc IP barcode read proportion) (log2 ratio); each designed protein is fused to an ALFA-tag nanobody in HEK293 cells to bring the named protein to FLAG-tagged glucokinase (GCK); Myc marks an untargeted standard; higher = target protein stabilised (more abundant); settings: target protein: 3xFLAG-MCP-GCK-ALFA reporter; HEK293 landing pad (RPLP)
In short: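 The readout is target abundance, the per-binder median log2 ratio of FLAG to Myc barcode read proportions. It came from HEK293 landing-pad cells carrying a recombined ALFA-nanobody-fused binder library, induced with 2 μg mL^−1 doxycycline and transfected with a plasmid for a FLAG-tagged target and a Myc-tagged standard. After 48 h, lysates were immunoprecipitated with anti-FLAG and anti-Myc, and circular RNA barcodes were reverse transcribed, amplified and sequenced. Each barcode needed a proportion of at least 10^−7 in both replicates and each binder at least 3 barcodes per replicate, a pseudocount of 10^−6 was added, and the replicates were pooled.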

Which “median log2 fold change” value does the source give for B1 here?
Its value is -0.0211.

For B2, which “median log2 fold change” value is on record?
The value was -0.0247.

B3 was tested. Which “median log2 fold change” value did it give?
Its value is 0.202.

With B4 as the binder, how does the “median log2 fold change” value read?
The value was 0.0704.

With B5 as the binder, how does the “median log2 fold change” value read?
The value was 0.132.

For B6, which “median log2 fold change” value is on record?
Its value is -0.121.

For B7, which “median log2 fold change” value is on record?
The value was 0.0946.

For B8, which “median log2 fold change” value is on record?
The value was -0.285.

Which “median log2 fold change” value does the source give for B9 here?
Its value is 0.131.

B10 was tested. Which “median log2 fold change” value did it give?
The value was 0.547.

B11 was tested. Which “median log2 fold change” value did it give?
Its value is 0.0692.

How did the “median log2 fold change” value turn out when B12 was run?
Its value is 0.198.

With B13 as the binder, how does the “median log2 fold change” value read?
Its value is -0.00697.

With B14 as the binder, how does the “median log2 fold change” value read?
Its value is 0.171.

For B15, which “median log2 fold change” value is on record?
The value was 0.0901.

How did the “median log2 fold change” value turn out when B16 was run?
The value was -0.158.

B17 was tested. Which “median log2 fold change” value did it give?
Its value is 0.0567.

With B18 as the binder, how does the “median log2 fold change” value read?
The value was -0.445.

Which “median log2 fold change” value does the source give for B19 here?
The value was 0.0521.
